According to patent EP3858439A1 (priority 2020, dated 2021):
Counter-ions that a name gives are not always drawn. Like-named read-outs stand apart in the source and are kept apart here.

Molecular target: human α2δ-1 subunit of Cav2.2 calcium channel (Homo sapiens, UniProt P54289)
Assay: Binding assay to human α2δ-1 subunit of Cav2.2 calcium channel ([3H]-Gabapentin displacement)
Experimental: Binding assay to human α2δ-1 subunit of Cav2.2 calcium channel.
Human α2δ-1 enriched membranes (2.5 µg) were incubated with 15 nM of radiolabeled [3H]-Gabapentin in assay buffer containing Hepes-KOH 10 mM, pH 7.4.
NSB (non specific binding) was measured by adding 10 µM pregabalin. The binding of the test compound was measured at either one concentration (% inhibition at 1 or 10 µM) or five different concentrations to determine affinity values (Ki). After 60 min incubation at 27 °C, binding reaction was terminated by filtering through Multiscreen GF/C (Millipore) presoaked in 0.5 % polyethyleneimine in Vacuum Manifold Station, followed by 3 washes with ice-cold filtration buffer containing 50 mM Tris-HCI, pH 7.4.
Filter plates were dried at 60 °C for 1 h and 30µl of scintillation cocktail were added to each well before radioactivity reading.
Readings were performed in a Trilux 1450 Microbeta radioactive counter (Perkin Elmer).

[1] = read-out: Binding α2δ-1, Table 2, human α2δ-1 enriched membranes, 15 nM [3H]-Gabapentin, 60 min at 27 °C

Sequence of human α2δ-1 subunit of Cav2.2 calcium channel (P54289 25-1103): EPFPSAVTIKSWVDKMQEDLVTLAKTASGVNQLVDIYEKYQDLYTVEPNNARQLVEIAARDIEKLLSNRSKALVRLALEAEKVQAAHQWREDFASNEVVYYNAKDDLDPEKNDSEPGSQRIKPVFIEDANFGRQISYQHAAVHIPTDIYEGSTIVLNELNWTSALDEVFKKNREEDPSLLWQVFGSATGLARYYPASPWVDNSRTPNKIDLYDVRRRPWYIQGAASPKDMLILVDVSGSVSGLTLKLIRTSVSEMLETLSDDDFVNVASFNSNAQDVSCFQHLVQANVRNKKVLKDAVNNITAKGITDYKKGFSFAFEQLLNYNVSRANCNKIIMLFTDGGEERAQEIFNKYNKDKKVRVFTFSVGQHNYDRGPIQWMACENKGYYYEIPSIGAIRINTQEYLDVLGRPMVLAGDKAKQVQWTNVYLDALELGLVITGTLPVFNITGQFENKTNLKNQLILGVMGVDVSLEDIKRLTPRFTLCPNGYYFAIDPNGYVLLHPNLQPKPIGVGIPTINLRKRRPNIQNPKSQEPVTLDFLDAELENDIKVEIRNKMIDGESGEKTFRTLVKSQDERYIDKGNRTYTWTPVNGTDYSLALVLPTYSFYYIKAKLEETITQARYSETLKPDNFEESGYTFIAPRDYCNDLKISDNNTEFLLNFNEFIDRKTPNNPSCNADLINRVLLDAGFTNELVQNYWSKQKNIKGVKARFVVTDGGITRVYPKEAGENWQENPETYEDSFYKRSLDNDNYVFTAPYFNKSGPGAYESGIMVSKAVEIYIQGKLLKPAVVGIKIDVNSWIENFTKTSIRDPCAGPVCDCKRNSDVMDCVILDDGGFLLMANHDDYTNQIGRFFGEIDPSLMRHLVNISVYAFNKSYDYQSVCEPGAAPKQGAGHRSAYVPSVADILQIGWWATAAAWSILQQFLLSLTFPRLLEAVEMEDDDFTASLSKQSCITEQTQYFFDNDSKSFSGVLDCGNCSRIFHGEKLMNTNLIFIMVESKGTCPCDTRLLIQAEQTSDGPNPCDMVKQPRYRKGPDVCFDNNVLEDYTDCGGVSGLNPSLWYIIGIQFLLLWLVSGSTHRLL

| Compound | Ki | Ki [1] |
| --- | --- | --- |
| CN(C)C1(c2ccccc2)CCN(C(=O)[C@@H](CN)[C@@H]2CCCc3ccccc32)CC1 (racemic) [Example 77, (RS)-3-Amino-1-(4-(dimethylamino)-4-phenylpiperidin-1-yl)-2-((SR)-1,2,3,4-tetrahydronaphthalen-1-yl)propan-1-one] | 500 to 5000 nM | 500 to 5000 nM |
| CN(C)C1(c2ccccc2)CCN(C(=O)[C@@H](CN)[C@H]2CCCc3ccccc32)CC1 (racemic) [Example 78, (RS)-3-amino-1-(4-(dimethylamino)-4-phenylpiperidin-1-yl)-2-((RS)-1,2,3,4-tetrahydronaphthalen-1-yl)propan-1-one] | 500 to 5000 nM | 500 to 5000 nM |
| CNC[C@@H](C(=O)N1CCC(c2ccccc2)(N(C)C)CC1)[C@@H](C)c1ccccc1 [Example 1, (2S,3R)-1-(4-(Dimethylamino)-4-phenylpiperidin-1-yl)-2-((methylamino)methyl)-3-phenylbutan-1-one dihydrochloride] | < 500 nM | < 500 nM |
| CNC[C@@H](C(=O)N1CCC(c2ccc(F)cc2)(N(C)C)CC1)[C@@H](C)c1ccccc1 [Example 2, (2S,3R)-1-(4-(dimethylamino)-4-(4-fluorophenyl)piperidin-1-yl)-2-((methylamino)methyl)-3-phenylbutan-1-one] | < 500 nM | < 500 nM |
| CNC[C@@H](C(=O)N1CCC(c2cccc(F)c2)(N(C)C)CC1)[C@@H](C)c1ccccc1 [Example 3, (2S,3R)-1-(4-(dimethylamino)-4-(3-fluorophenyl)piperidin-1-yl)-2-((methylamino)methyl)-3-phenylbutan-1-one] | < 500 nM | < 500 nM |
| CNC[C@@H](C(=O)N1CCC(NC)(c2ccccc2)CC1)[C@@H](C)c1ccccc1 [Example 4, (2S,3R)-1-(4-(methylamino)-4-phenylpiperidin-1-yl)-2-((methylamino)methyl)-3-phenylbutan-1-one] | < 500 nM | < 500 nM |
| CN(C)C1(c2ccccc2)CCN(C(=O)[C@H](CN)C(C)(C)c2ccccc2)CC1 [Example 5, (S)-2-(aminomethyl)-1-(4-(dimethylamino)-4-phenylpiperidin-1-yl)-3-methyl-3-phenylbutan-1-one] | 500 to 5000 nM | 500 to 5000 nM |
| CC[C@@H](c1ccccc1)[C@@H](CN)C(=O)N1CCC(NC)(c2ccccc2)CC1 [Example 6, (2S,3R)-2-(aminomethyl)-1-(4-(methylamino)-4-phenylpiperidin-1-yl)-3-phenylpentan-1-one dihydrochloride] | < 500 nM | < 500 nM |
| C[C@@H](c1ccccc1)[C@@H](CN)C(=O)N1CCC(c2ccccc2)(N(C)C)CC1 [Example 7, (2S,3R)-2-(aminomethyl)-1-(4-(dimethylamino)-4-phenylpiperidin-1-yl)-3-phenylbutan-1-one dihydrochloride] | < 500 nM | < 500 nM |
| CC[C@@H](c1ccccc1)[C@@H](CN)C(=O)N1CCC(c2ccccc2)(N(C)C)CC1 [Example 8, (2S,3R)-2-(aminomethyl)-1-(4-(dimethylamino)-4-phenylpiperidin-1-yl)-3-phenylpentan-1-one dihydrochloride] | < 500 nM | < 500 nM |
| CNC1(c2ccccc2)CCN(C(=O)[C@H](CN)[C@@H](C)c2ccccc2)CC1 [Example 9, (2S,3R)-2-(aminomethyl)-1-(4-(methylamino)-4-phenylpiperidin-1-yl)-3-phenylbutan-1-one] | < 500 nM | < 500 nM |
| CC[C@@H](c1ccccc1)[C@@H](CN)C(=O)N1CC(c2ccccc2)(N(C)C)C1 [Example 10, (2S,3R)-2-(aminomethyl)-1-(3-(dimethylamino)-3-phenylazetidin-1-yl)-3-phenylpentan-1-one] | < 500 nM | < 500 nM |
| CC[C@@H](c1cccc(F)c1)[C@@H](CN)C(=O)N1CCC(NC)(c2ccccc2)CC1 [Example 11, (2S,3R)-2-(aminomethyl)-3-(3-fluorophenyl)-1-(4-(methylamino)-4-phenylpiperidin-1-yl)pentan-1-one] | < 500 nM | < 500 nM |
| CNC[C@@H](C(=O)N1CCC(c2ccc(OC)cc2)(N(C)C)CC1)[C@@H](C)c1ccccc1 [Example 12, (2S,3R)-1-(4-(dimethylamino)-4-(4-methoxyphenyl)piperidin-1-yl)-2-((methylamino)methyl)-3-phenylbutan-1-one] | < 500 nM | < 500 nM |
| CC[C@@H](c1ccccc1)[C@@H](CNC)C(=O)N1CCC(c2ccccc2)(N(C)C)CC1 [Example 13, (2S,3R)-1-(4-(dimethylamino)-4-phenylpiperidin-1-yl)-2-((methylamino)methyl)-3-phenylpentan-1-one dihydrochloride] | < 500 nM | < 500 nM |
| CNC[C@@H](C(=O)N1CCC(c2ccccc2)(N(C)C)CC1)[C@@H](C)c1ccccc1F [Example 14, (2S,3R)-1-(4-(dimethylamino)-4-phenylpiperidin-1-yl)-3-(2-fluorophenyl)-2-((methylamino)methyl)butan-1-one dihydrochloride] | < 500 nM | < 500 nM |
| CNC[C@@H](C(=O)N1CCC(c2ccccc2)(N(C)C)CC1)[C@@H](C)c1cccc(F)c1 [Example 15, (2S,3R)-1-(4-(dimethylamino)-4-phenylpiperidin-1-yl)-3-(3-fluorophenyl)-2-((methylamino)methyl)butan-1-one] | < 500 nM | < 500 nM |
| CNC[C@@H](C(=O)N1CCC(c2cccc(O)c2)(N(C)C)CC1)[C@@H](C)c1ccccc1 [Example 16, (2S,3R)-1-(4-(dimethylamino)-4-(3-hydroxyphenyl)piperidin-1-yl)-2-((methylamino)methyl)-3-phenylbutan-1-one dihydrochloride] | < 500 nM | < 500 nM |
| CC[C@@H](c1ccccc1)[C@@H](CNC)C(=O)N1CCC(NC)(c2ccccc2)CC1 [Example 17, (2S,3R)-1-(4-(methylamino)-4-phenylpiperidin-1-yl)-2-((methylamino)methyl)-3-phenylpentan-1-one dihydrochloride] | < 500 nM | < 500 nM |
| CNC[C@@H](C(=O)N1CCC(CN(C)C)(c2ccccc2)CC1)[C@@H](C)c1ccccc1 [Example 18, (2S,3R)-1-(4-((dimethylamino)methyl)-4-phenylpiperidin-1-yl)-2-((methylamino)methyl)-3-phenylbutan-1-one] | < 500 nM | – |
| CC[C@@H](c1ccccc1)[C@@H](CNC)C(=O)N1CC(c2ccccc2)(N(C)C)C1 [Example 19, (2S,3R)-1-(3-(dimethylamino)-3-phenylazetidin-1-yl)-2-((methylamino)methyl)-3-phenylpentan-1-one dihydrochloride] | 500 to 5000 nM | 500 to 5000 nM |
| CC[C@@H](c1cccc(F)c1)[C@@H](CNC)C(=O)N1CCC(NC)(c2ccccc2)CC1 [Example 20, (2S,3R)-3-(3-fluorophenyl)-1-(4-(methylamino)-4-phenylpiperidin-1-yl)-2-((methylamino)methyl)pentan-1-one] | < 500 nM | < 500 nM |
| CC[C@@H](c1cccc(F)c1)[C@@H](CNC)C(=O)N1CCC(c2ccccc2)(N(C)C)CC1 [Example 21, (2S,3R)-1-(4-(dimethylamino)-4-phenylpiperidin-1-yl)-3-(3-fluorophenyl)-2-((methylamino)methyl)pentan-1-one] | < 500 nM | < 500 nM |
| CC[C@@H](c1ccccc1)[C@@H](CNC)C(=O)N1CCC(NC)(c2ccc(OC)cc2)CC1 [Example 22, (2S,3R)-1-(4-(4-methoxyphenyl)-4-(methylamino)piperidin-1-yl)-2-((methylamino)methyl)-3-phenylpentan-1-one dihydrochloride] | < 500 nM | < 500 nM |
| CC[C@@H](c1ccccc1)[C@@H](CNC)C(=O)N1CC(NC)(c2ccccc2)C1 [Example 23, (2S,3R)-1-(3-(methylamino)-3-phenylazetidin-1-yl)-2-((methylamino)methyl)-3-phenylpentan-1-one dihydrochloride] | < 500 nM | – |
| CN(C)C1(c2ccccc2)CCN(C(=O)C(CN)Cc2ccccc2)CC1 (stereo not shown) [Example 28, 3-amino-2-benzyl-1-(4-(dimethylamino)-4-phenylpiperidin-1-yl)propan-1-one dihydrochloride] | 500 to 5000 nM | 500 to 5000 nM |
| CCNCC(Cc1ccccc1)C(=O)N1CCC(c2ccccc2)(N(C)C)CC1 (stereo not shown) [Example 30, 2-benzyl-1-(4-(dimethylamino)-4-phenylpiperidin-1-yl)-3-(ethylamino)propan-1-one dihydrochloride] | 500 to 5000 nM | 500 to 5000 nM |
| CNCCC(Cc1ccccc1)C(=O)N1CCC(c2ccccc2)(N(C)C)CC1 (stereo not shown) [Example 31, 2-benzyl-1-(4-(dimethylamino)-4-phenylpiperidin-1-yl)-4-(methylamino)butan-1-one dihydrochloride] | 500 to 5000 nM | 500 to 5000 nM |
| CNCC(Cc1ccccc1)C(=O)N1CCC(c2cccc(O)c2)(N(C)C)CC1 (stereo not shown) [Example 34, 2-benzyl-1-(4-(dimethylamino)-4-(3-hydroxyphenyl)piperidin-1-yl)-3-(methylamino)propan-1-one dihydrochloride] | 500 to 5000 nM | 500 to 5000 nM |
| CN(C)C1(c2cccc(O)c2)CCN(C(=O)C2NCCc3ccccc32)CC1 (stereo not shown) [Example 35, (4-(dimethylamino)-4-(3-hydroxyphenyl)piperidin-1-yl)(1,2,3,4-tetrahydroisoquinolin-1-yl)methanone dihydrochloride] | > 5000 nM | > 5000 nM |
